Assay results reported in publication PMC2991254.
These are yes or no findings as the source states them, for the method shown. Some results given as binding are weak or reduced against the parent protein; the word gives no strength.

Protein sequences, listed by entry. Tags and fused reporters are not part of them. Lines headed by an entry give the natural chain unless they say otherwise; changes in a name come on top. Chains listed by the source or under a name are the forms on record and can include a tag or linker.
UniProt A2RVQ5: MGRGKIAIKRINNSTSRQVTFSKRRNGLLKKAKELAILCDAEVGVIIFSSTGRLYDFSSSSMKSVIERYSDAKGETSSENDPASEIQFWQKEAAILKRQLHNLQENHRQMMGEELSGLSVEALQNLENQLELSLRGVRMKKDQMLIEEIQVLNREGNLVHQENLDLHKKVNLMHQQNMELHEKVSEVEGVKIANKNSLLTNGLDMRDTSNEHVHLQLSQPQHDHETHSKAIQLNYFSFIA
UniProt Q9SI38: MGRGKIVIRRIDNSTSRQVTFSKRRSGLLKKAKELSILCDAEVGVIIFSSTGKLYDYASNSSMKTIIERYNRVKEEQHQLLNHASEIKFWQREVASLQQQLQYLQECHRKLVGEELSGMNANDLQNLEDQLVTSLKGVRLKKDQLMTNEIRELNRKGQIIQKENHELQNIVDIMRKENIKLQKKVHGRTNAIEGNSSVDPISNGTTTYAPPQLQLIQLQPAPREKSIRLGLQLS
UniProt O64645: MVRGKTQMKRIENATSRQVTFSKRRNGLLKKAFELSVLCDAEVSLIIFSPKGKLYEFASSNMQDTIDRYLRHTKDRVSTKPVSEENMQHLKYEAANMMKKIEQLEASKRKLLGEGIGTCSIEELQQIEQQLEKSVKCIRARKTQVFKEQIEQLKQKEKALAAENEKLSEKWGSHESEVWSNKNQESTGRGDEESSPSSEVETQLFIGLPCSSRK
UniProt Q38876: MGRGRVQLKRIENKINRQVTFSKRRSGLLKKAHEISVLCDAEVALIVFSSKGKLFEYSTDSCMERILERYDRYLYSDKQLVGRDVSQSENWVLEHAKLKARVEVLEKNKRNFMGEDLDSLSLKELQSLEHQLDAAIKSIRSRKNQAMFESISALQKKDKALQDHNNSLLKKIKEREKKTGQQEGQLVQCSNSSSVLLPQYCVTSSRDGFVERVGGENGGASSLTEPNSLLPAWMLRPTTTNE
UniProt O82743: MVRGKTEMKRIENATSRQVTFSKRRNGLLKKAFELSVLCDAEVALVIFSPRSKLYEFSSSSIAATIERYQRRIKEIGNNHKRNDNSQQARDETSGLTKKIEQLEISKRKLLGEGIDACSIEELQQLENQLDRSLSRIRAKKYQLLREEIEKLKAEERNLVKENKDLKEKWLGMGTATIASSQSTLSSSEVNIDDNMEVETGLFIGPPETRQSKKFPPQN
UniProt P17839: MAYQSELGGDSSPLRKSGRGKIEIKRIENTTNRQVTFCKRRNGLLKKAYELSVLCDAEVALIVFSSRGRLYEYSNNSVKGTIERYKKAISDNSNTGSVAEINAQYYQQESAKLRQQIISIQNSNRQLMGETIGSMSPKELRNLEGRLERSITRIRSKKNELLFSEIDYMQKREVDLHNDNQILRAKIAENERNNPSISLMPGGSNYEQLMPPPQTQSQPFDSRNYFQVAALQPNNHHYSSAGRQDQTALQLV
UniProt Q38836: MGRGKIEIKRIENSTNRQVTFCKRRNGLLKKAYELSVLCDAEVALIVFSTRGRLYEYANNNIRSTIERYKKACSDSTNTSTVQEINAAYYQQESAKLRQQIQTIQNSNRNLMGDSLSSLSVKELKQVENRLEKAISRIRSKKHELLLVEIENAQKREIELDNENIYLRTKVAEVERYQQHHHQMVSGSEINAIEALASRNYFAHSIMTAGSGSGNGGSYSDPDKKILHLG
UniProt P29384: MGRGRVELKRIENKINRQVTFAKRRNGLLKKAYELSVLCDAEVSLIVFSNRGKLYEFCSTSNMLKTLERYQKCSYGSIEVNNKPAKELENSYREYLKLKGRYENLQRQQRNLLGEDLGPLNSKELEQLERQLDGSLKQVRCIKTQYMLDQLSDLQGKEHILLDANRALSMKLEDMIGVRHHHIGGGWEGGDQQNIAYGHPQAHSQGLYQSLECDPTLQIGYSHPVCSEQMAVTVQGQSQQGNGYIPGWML
UniProt Q9S7Q7: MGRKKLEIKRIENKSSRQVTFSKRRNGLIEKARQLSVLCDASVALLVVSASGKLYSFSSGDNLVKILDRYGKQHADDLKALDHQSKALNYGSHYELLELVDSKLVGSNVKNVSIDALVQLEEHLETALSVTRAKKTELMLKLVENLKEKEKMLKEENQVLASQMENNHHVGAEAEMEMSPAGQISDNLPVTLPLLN
UniProt O82794: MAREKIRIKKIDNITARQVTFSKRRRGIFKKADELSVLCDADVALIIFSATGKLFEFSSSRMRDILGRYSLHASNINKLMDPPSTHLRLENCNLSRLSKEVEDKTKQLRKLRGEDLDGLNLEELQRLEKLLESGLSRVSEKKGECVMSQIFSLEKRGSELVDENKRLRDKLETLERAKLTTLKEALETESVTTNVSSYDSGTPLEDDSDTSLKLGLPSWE
UniProt Q9FIS1: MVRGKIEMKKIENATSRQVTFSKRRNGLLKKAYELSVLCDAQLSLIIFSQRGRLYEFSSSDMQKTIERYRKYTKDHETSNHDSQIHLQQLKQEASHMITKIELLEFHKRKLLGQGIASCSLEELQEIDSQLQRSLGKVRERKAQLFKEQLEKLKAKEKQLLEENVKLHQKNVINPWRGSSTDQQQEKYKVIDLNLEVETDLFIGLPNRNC
UniProt P29382: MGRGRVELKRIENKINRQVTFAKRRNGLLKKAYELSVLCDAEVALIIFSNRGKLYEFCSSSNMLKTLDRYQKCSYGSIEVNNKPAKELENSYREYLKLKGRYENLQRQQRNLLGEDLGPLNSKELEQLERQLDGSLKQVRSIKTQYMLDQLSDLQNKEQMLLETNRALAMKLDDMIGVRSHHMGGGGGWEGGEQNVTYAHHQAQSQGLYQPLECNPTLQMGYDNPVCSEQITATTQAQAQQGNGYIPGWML
UniProt Q38838: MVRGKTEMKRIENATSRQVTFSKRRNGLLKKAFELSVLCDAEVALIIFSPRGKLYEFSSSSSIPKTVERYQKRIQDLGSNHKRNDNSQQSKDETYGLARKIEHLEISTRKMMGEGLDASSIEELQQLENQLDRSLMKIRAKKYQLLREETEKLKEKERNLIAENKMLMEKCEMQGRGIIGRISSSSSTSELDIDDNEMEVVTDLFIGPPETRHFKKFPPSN
AGL14 SIPK62-65MQD (Q38838, form named): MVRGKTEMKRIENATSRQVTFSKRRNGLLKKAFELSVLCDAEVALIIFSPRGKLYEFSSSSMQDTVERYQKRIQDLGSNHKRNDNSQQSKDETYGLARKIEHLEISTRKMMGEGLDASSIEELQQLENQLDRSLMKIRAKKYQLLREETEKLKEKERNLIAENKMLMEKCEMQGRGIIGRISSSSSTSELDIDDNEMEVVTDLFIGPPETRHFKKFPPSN
UniProt P35631: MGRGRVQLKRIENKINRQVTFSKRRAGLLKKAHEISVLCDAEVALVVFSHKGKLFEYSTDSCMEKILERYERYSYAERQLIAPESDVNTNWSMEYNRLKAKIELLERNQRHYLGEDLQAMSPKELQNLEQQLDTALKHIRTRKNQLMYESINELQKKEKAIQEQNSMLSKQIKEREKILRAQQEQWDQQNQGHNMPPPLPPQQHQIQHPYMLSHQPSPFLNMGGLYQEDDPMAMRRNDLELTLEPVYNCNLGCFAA
UniProt Q39081: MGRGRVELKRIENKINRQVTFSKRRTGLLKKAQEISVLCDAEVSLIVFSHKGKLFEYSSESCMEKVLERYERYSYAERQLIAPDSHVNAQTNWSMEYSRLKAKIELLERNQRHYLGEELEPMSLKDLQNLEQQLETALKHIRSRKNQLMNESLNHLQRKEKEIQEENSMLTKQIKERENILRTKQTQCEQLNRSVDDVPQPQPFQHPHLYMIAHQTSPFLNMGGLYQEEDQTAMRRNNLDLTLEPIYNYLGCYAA

Columns and labels:
Assay in all cases: two-hybrid; matrix-based yeast two-hybrid, GAL4-AD and GAL4-BD fusions (pDEST22, pDEST32), in duplicate, at least two reporter genes; medium lacking Leu, Trp and His with 1 mM 3-amino-1,2,4-triazole, growth scored after 4 days at 20°C
[1] = molecular target: AGL16 (Arabidopsis thaliana) (UniProt A2RVQ5)
[2] = molecular target: ANR1 (Arabidopsis thaliana) (UniProt Q9SI38)
[3] = molecular target: SUPPRESSOR OF OVEREXPRESSION OF CO 1 (Arabidopsis thaliana) (UniProt O64645)
[4] = molecular target: FRUITFUL (Arabidopsis thaliana) (UniProt Q38876)
[5] = molecular target: AGL19 (Arabidopsis thaliana) (UniProt O82743)
[6] = molecular target: AGAMOUS (Arabidopsis thaliana) (UniProt P17839)
[7] = molecular target: T1, XAL1 (Arabidopsis thaliana) (UniProt Q38841)
T1 sequence: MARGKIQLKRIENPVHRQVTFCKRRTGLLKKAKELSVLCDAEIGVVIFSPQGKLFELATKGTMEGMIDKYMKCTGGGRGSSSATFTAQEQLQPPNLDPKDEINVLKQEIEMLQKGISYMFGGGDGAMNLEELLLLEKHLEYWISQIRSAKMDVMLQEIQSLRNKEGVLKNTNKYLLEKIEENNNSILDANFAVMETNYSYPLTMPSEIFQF

… (Arabidopsis thaliana) = … (Arabidopsis thaliana) (UniProt Q38836)
[8] = molecular target: SEP2 (Arabidopsis thaliana) (UniProt P29384)
[9] = molecular target: FLOWERING LOCUS C (Arabidopsis thaliana) (UniProt Q9S7Q7)
[10] = molecular target: AGAMOUS-LIKE24 (Arabidopsis thaliana) (UniProt O82794)
[11] = molecular target: AGL42 (Arabidopsis thaliana) (UniProt Q9FIS1)
[12] = molecular target: SEP1 (Arabidopsis thaliana) (UniProt P29382)

Row | binding [1] | binding [2] | binding [3] | binding [4] | binding [5] | binding [6] | binding [7] | binding (… (Arabidopsis thaliana)) | binding [8] | binding [9] | binding [10] | binding [11] | binding [12] | Substance
1 | binds | no binding | binds | binds | no binding | no binding | no binding | no binding | no binding | no binding | binds | no binding | no binding | AGAMOUS LIKE14 (from UniProt Q38838 1-221)
2 | binds | no binding | binds | binds | no binding | no binding | no binding | no binding | binds | no binding | binds | no binding | binds | AP1 Y148N (from UniProt P35631 1-256)
3 | binds | no binding | binds | no binding | no binding | no binding | no binding | no binding | no binding | no binding | binds | no binding | binds | APETALA1 (from UniProt P35631 1-256)
4 | no binding | no binding | binds | no binding | no binding | no binding | no binding | no binding | no binding | no binding | no binding | no binding | no binding | CAULIFLOWER (from UniProt Q39081 1-255)
5 | binds | binds | binds | – | binds | binds | no binding | no binding | binds | binds | no binding | binds | binds | SHORT … PHASE (SVP1) (from UniProt Q9FVC1 1-240)
6 | binds | binds | binds | – | binds | no binding | binds | no binding | binds | no binding | binds | binds | – | SUPPRESSOR OF OVEREXPRESSION OF CO 1 (from UniProt O64645 1-214)

The remaining lines, values behind:

Row | Substance | binding [1] | binding [2] | binding [3] | binding [4] | binding [5] | binding [6] | binding [7] | binding (… (Arabidopsis thaliana)) | binding [8] | binding [9] | binding [10] | binding [11] | binding [12]
7 | AG Q126H (from UniProt P17839 1-252) | binds | no binding | no binding | no binding | no binding | no binding | no binding | no binding | binds | no binding | no binding | no binding | binds
8 | AGAMOUS (from UniProt P17839 1-252) | binds | no binding | no binding | – | no binding | – | no binding | no binding | binds | no binding | – | no binding | binds
9 | AGL14 SIPK62-65MQD (from UniProt Q38838 1-221) | binds | binds | binds | binds | no binding | no binding | binds | no binding | binds | no binding | binds | no binding | no binding
10 | AP1 I66V (from UniProt P35631 1-256) | binds | no binding | binds | no binding | no binding | no binding | no binding | no binding | binds | no binding | no binding | no binding | binds
11 | AP1 I66V/Y148N (from UniProt P35631 1-256) | no binding | no binding | no binding | no binding | no binding | no binding | no binding | no binding | no binding | no binding | no binding | no binding | no binding
12 | CAL N150Y (from UniProt Q39081 1-255) | binds | no binding | binds | binds | binds | binds | no binding | no binding | binds | no binding | binds | binds | binds
13 | CAL V66I (from UniProt Q39081 1-255) | binds | no binding | binds | binds | no binding | no binding | binds | no binding | binds | no binding | binds | no binding | binds
14 | CAL V66I/N150Y (from UniProt Q39081 1-255) | no binding | no binding | no binding | no binding | no binding | no binding | no binding | no binding | no binding | no binding | no binding | no binding | no binding
